According to the supplement of paper PMC9588766:
Structures can show the parent of a compound that is named as a salt. ± gives the standard deviation of the averaged measurements. The full ranking holds about 2,000 compounds; the median of “cell viability relative to DMSO control (compound alone)” is about 0.98, and the lowest 2% start at about 0.23. Some of the results follow.

System: PDC-DUC18828
Experiment: cell viability relative to DMSO control (compound alone) (fraction); PDC-DUC18828 is a patient-derived cholangiocarcinoma cell line; higher = less growth inhibition
Conditions: 1 µM; 72 h
Description: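 Selleck Bioactive library screen in the patient-derived FGFR2-G3BP2 fusion-positive ICC cell line PDC-DUC18828 (500 cells/well). Each compound was tested at 1 uM alone, in triplicate, for 72 h. Viability was read by CellTiter-Glo and normalised to plate DMSO controls.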

**Q.** C[N+]1(C)[C@@H]2C[C@@H](OC(=O)C(O)(c3cccs3)c3cccs3)C[C@H]1[C@@H]1O[C@@H]12 [Tiotropium Bromide hydrate] was tested. Which cell viability did it give?
**A.** Its cell viability is 1 ± 0.055.

**Q.** For O=C[C@H](O)[C@@H](O)[C@H](O)CO [Xylose], which cell viability is on record?
**A.** The cell viability was 1.08 ± 0.046.

**Q.** Which cell viability does the source give for CC(=O)O[C@]1(C(C)=O)CC[C@H]2[C@@H]3C[C@H](C)C4=CC(=O)C=C[C@]4(C)[C@@]3(F)[C@@H](O)C[C@@]21C [Fluorometholone Acetate] here?
**A.** The cell viability was 0.849 ± 0.046.

**Q.** Which cell viability does the source give for COc1ccc([C@@H]2CC(=O)c3c(O)cc(O[C@@H]4O[C@H](CO[C@@H]5O[C@@H](C)[C@H](O)[C@@H](O)[C@H]5O)[C@@H](O)[C@H](O)[C@H]4O)cc3O2)cc1O [Hesperidin] here?
**A.** Its cell viability is 0.958 ± 0.042.

**Q.** Which cell viability does the source give for O=c1cc(N2CCOCC2)oc2c(-c3cccc4c3sc3ccccc34)cccc12 here?
**A.** The cell viability was 1.01 ± 0.033.

**Q.** With CC(C)(C(=O)O)c1ccc(C(O)CCCN2CCC(C(O)(c3ccccc3)c3ccccc3)CC2)cc1 (stereo not given) [Fexofenadine HCl] as the molecule, how does the cell viability read?
**A.** Its cell viability is 0.999 ± 0.043.

**Q.** How did the cell viability turn out when Cc1onc(-c2c(Cl)cccc2Cl)c1C(=O)N[C@@H]1C(=O)N2[C@@H]1SC(C)(C)[C@@H]2C(=O)O [Dicloxacillin Sodium] was run?
**A.** The cell viability was 1.02 ± 0.03.

**Q.** For Cc1cc(NC(=O)Nc2ccc(N(C)C)cc2)c2cc(F)cc(F)c2n1, which cell viability is on record?
**A.** Its cell viability is 1.01 ± 0.04.

**Q.** With Cn1cc(-c2ccc3ncc(Cc4ccc5ncccc5c4)n3n2)cn1 as the molecule, how does the cell viability read?
**A.** The cell viability was 0.968 ± 0.015.

**Q.** For CC1C(=O)OC2C(O)C34C5CC(C(C)(C)C)C36C(OC(=O)C6O)OC4(C(=O)O5)C12O (stereo not given) [Ginkgolide B], which cell viability is on record?
**A.** The cell viability was 1.03 ± 0.02.

**Q.** For CN(C)/N=N/c1[nH]cnc1C(N)=O [Dacarbazine], which cell viability is on record?
**A.** The cell viability was 0.993 ± 0.034.

**Q.** With O=C(O)c1cccnc1Nc1cccc(C(F)(F)F)c1 [Niflumic acid] as the molecule, how does the cell viability read?
**A.** Its cell viability is 0.989 ± 0.022.

**Q.** How did the cell viability turn out when Cc1oncc1C(=O)Nc1ccc(C(F)(F)F)cc1 [Leflunomide] was run?
**A.** The cell viability was 0.946 ± 0.043.

**Q.** For CC1CC(OC(=O)C(O)c2ccccc2)CC(C)(C)C1 (stereo not given) [Cyclandelate], which cell viability is on record?
**A.** The cell viability was 1.02 ± 0.03.

**Q.** CCOC(=O)[C@H](CCc1ccccc1)N[C@@H](C)C(=O)N1Cc2ccccc2C[C@H]1C(=O)O [Quinapril HCl] was tested. Which cell viability did it give?
**A.** The cell viability was 0.974 ± 0.034.

**Q.** CC(CCc1ccccc1)NCC(O)c1ccc(O)c(C(N)=O)c1 (stereo not given) [Labetalol HCl] was tested. Which cell viability did it give?
**A.** Its cell viability is 1.06 ± 0.041.

**Q.** With CC1(C)S[C@@H]2[C@H](NC(=O)[C@H](NC(=O)N3CCNC3=O)c3ccccc3)C(=O)N2[C@H]1C(=O)O [Azlocillin sodium salt] as the molecule, how does the cell viability read?
**A.** The cell viability was 1.04 ± 0.034.

**Q.** For CCn1c2ccccc2c2cc(Nc3ccnc(NCCCN4CCOCC4)n3)ccc21, which cell viability is on record?
**A.** Its cell viability is 0.953 ± 0.024.

**Q.** How did the cell viability turn out when Nc1nc2c(ncn2[C@@H]2O[C@H](CO)[C@@H](O)[C@H]2O)c(=O)[nH]1 [Guanosine] was run?
**A.** Its cell viability is 0.932 ± 0.034.

**Q.** Which cell viability does the source give for CC(C)OC(=O)[C@H](C)N[P@](=O)(OC[C@H]1O[C@@H](n2ccc(=O)[nH]c2=O)[C@](C)(F)[C@@H]1O)Oc1ccccc1 [Sofosbuvir (PSI-7977, GS-7977)] here?
**A.** The cell viability was 1.14 ± 0.14.

**Q.** How did the cell viability turn out when CC(C)n1nc(-c2ccc3oc(N)nc3c2)c2c(N)ncnc21 was run?
**A.** Its cell viability is 0.203 ± 0.0083.

**Q.** O=C(O)c1cc(C(F)(F)F)ccc1N1CC[C@H](OCc2ccccn2)C1 was tested. Which cell viability did it give?
**A.** The cell viability was 0.962 ± 0.05.

**Q.** CC(=O)Nc1nc2c(Oc3cc(-c4ccc(C(F)(F)F)cc4)ncn3)cccc2s1 was tested. Which cell viability did it give?
**A.** The cell viability was 0.962 ± 0.022.

**Q.** Which cell viability does the source give for N[C@@H](Cc1c[nH]c2ccc(O)cc12)C(=O)O [5-hydroxytryptophan (5-HTP)] here?
**A.** Its cell viability is 1.07 ± 0.025.

**Q.** NC(=O)c1nc(F)cnc1O [Favipiravir (T-705)] was tested. Which cell viability did it give?
**A.** The cell viability was 1.04 ± 0.046.

**Q.** N=C(N)Nc1ccc(C(=O)Oc2ccc3cc(C(=N)N)ccc3c2)cc1 [Nafamostat Mesylate] was tested. Which cell viability did it give?
**A.** Its cell viability is 1.02 ± 0.034.

**Q.** How did the cell viability turn out when O=C(NO)c1cccc(C(=O)NCCc2ccccc2)c1 was run?
**A.** Its cell viability is 0.894 ± 0.029.

**Q.** O=C(O)/C=C/c1ccc(O)c(O)c1 [Caffeic Acid] was tested. Which cell viability did it give?
**A.** Its cell viability is 1.04 ± 0.064.

**Q.** With CC1(C)CC(=O)c2c(C(F)(F)F)nn(-c3ccc(C(N)=O)c(N[C@H]4CC[C@H](O)CC4)c3)c2C1 as the molecule, how does the cell viability read?
**A.** The cell viability was 0.33 ± 0.03.

**Q.** Which cell viability does the source give for CCCCc1nc2cc(/C=C/C(=O)NO)ccc2n1CCN(CC)CC [Pracinostat (SB939)] here?
**A.** The cell viability was 0.6136 ± 0.006.

**Q.** COc1cc2nc(N(C)CCCNC(=O)C3CCCO3)nc(N)c2cc1OC (stereo not given) [Alfuzosin HCl] was tested. Which cell viability did it give?
**A.** Its cell viability is 1.05 ± 0.028.

**Q.** With N#CSc1cc(SC#N)c(N)nc1N as the molecule, how does the cell viability read?
**A.** The cell viability was 0.993 ± 0.05.

**Q.** How did the cell viability turn out when N[C@H]1C[C@@H]1c1ccc(-c2cccc(O)c2)cc1 was run?
**A.** Its cell viability is 1.02 ± 0.052.

**Q.** With COc1ccc(-c2ccc3ncc4c(c3c2)n(-c2ccc(N3CCNCC3)c(C(F)(F)F)c2)c(=O)n4C)cn1 as the molecule, how does the cell viability read?
**A.** The cell viability was 0.0179 ± 0.0033.

**Q.** How did the cell viability turn out when CC(C)c1cc(-c2n[nH]c(=O)n2-c2ccc3c(ccn3C)c2)c(O)cc1O [Ganetespib (STA-9090)] was run?
**A.** Its cell viability is 0.332 ± 0.027.

**Q.** With CC(=O)O[C@]1(C(C)=O)CC[C@H]2[C@@H]3C=C(Cl)C4=CC(=O)[C@@H]5C[C@@H]5[C@]4(C)[C@H]3CC[C@@]21C [Cyproterone Acetate] as the molecule, how does the cell viability read?
**A.** Its cell viability is 1.06 ± 0.042.

**Q.** How did the cell viability turn out when CCCSc1nc(N[C@@H]2C[C@H]2c2ccc(F)c(F)c2)c2nnn([C@@H]3C[C@H](OCCO)[C@@H](O)[C@H]3O)c2n1 [Ticagrelor] was run?
**A.** The cell viability was 1.02 ± 0.037.

**Q.** How did the cell viability turn out when C=CC(=O)Nc1cccc(Nc2nc(Nc3ccc(Oc4ccnc(C(=O)NC)c4)cc3)ncc2F)c1 was run?
**A.** Its cell viability is 0.918 ± 0.1.

**Q.** How did the cell viability turn out when Cn1cc(-c2cnn3c(N)c(Br)c([C@@H]4CCCNC4)nc23)cn1 was run?
**A.** Its cell viability is 1.01 ± 0.041.

**Q.** For O=C(O)COCCN1CCN(C(c2ccccc2)c2ccc(Cl)cc2)CC1 (stereo not given) [Cetirizine DiHCl], which cell viability is on record?
**A.** The cell viability was 1.02 ± 0.036.

**Q.** C=C1C[C@@]2(O)O[C@@]3(C[C@H]2C(C)C)[C@@H](C)CC[C@@H]13 [Curcumol] was tested. Which cell viability did it give?
**A.** Its cell viability is 0.993 ± 0.044.

**Q.** How did the cell viability turn out when Cc1ccc(NCCCc2ccccc2)c(N)c1 was run?
**A.** Its cell viability is 0.974 ± 0.02.

**Q.** How did the cell viability turn out when C=CC(=O)Nc1cc(Nc2nccc(-c3cn(C)c4ccccc34)n2)c(OC)cc1N(C)CCN(C)C was run?
**A.** Its cell viability is 0.965 ± 0.054.

**Q.** Which cell viability does the source give for C#Cc1cccc(Nc2ncnc3cc4c(cc23)OCCOCCOCCO4)c1 [Icotinib] here?
**A.** The cell viability was 1.03 ± 0.042.

**Q.** With C=CC(=O)Nc1cc(Nc2nccc(-c3c[nH]c4ccccc34)n2)c(OC)cc1N(C)CCN(C)C as the molecule, how does the cell viability read?
**A.** Its cell viability is 1 ± 0.029.

**Q.** CC1(C)[C@H](C(=O)O)N2C(=O)C[C@H]2S1(=O)=O [Sulbactam] was tested. Which cell viability did it give?
**A.** The cell viability was 0.945 ± 0.035.

**Q.** For CC1(C)[C@H](C(=O)O)N2C(=O)C[C@H]2S1(=O)=O [Sulbactam sodium], which cell viability is on record?
**A.** Its cell viability is 1.04 ± 0.02.

**Q.** With Cc1ncc(CO)c(CO)c1O [Pyridoxine HCl] as the molecule, how does the cell viability read?
**A.** Its cell viability is 0.974 ± 0.035.

**Q.** How did the cell viability turn out when O=C(O)c1ccc(-c2c[nH]c3ncc(-c4ccccc4)cc23)cc1C1CCCC1 was run?
**A.** The cell viability was 0.8898 ± 0.0069.

**Q.** With CNS(=O)(=O)CCc1ccc2[nH]cc(C3CCN(C)CC3)c2c1 [Naratriptan] as the molecule, how does the cell viability read?
**A.** The cell viability was 1.06 ± 0.034.
